Assay results: the supplement of paper PMC11417369
± gives the standard deviation of the averaged measurements. This is one part of the list.

tested on: PfAP2-LT AP2 domain (GST-tagged); assay: gcPBM binding intensity (ln(normalized median fluorescence intensity)); higher = stronger DNA binding
Procedure, shortened: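 GST-fused DNA-binding domains of P. falciparum, expressed in E. coli, were applied at about 25 μg on average for 1 h to an Agilent 4 × 180k array of primer-extended double-stranded 36-bp intergenic genomic probes and negative controls. Binding intensity is the highest Masliner-normalised natural-log median intensity across replicate spots of either probe orientation, measured with Alexa488 anti-GST antibody and a 488 nm scan.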

Sequence	gcPBM binding intensity (ln)
CATAAATGTCTCACATGTACATATGCATTTTTAAAA [XGTACX_site3194]	8.57 ± 0.33
TATATATAATATTGCACACAAAATTAAAAGTAAATA [CACACA_site19]	9.06 ± 0.4
ATTATTTTGTTTATTACATGCAGGTGTATATTACAG [TGCATGCA_site723]	8.9 ± 0.33
GAGTATATTTATATTGCACACAATTTTTTTATTTTT [CACACA_site2644]	9.1 ± 0.42
TTAAATACTAAAAAGTGTACACATACATAAAAAATT [XGTACX_site6261]	8.96 ± 0.45
ATTATGTTAATAATATGTACATATATCTACATATAT [XGTACX_site7978]	9.04 ± 0.43
AAAATATTATCTAATTGTACTTATATAACTATATAT [XGTACX_site5699]	8.69 ± 0.42
TTGAAATGCATGAACACACACAGCTATAAATGCATA [CACACA_site968]	9.39 ± 0.4
AAATTTATGAACCTAGTGCAGAAATTAAAAAGATGA [GTGCAC_site9396]	8.69 ± 0.46
ATACTAAGGAGAAAAGAAAAGTGAATTTATTCTATA [CACACA_negctrl_site1792]	8.37 ± 0.63
TAATAAATAAATGACACACACACACCCAAAAAAAAA [CACACA_site2623]	10.1 ± 0.41
TTATTAACCTAAATTAGTACATATAATATAAAAAAT [XGTACX_site8661]	8.51 ± 0.4
AGCTATGTATTCTACACACACATACACCCATATATA [CACACA_site5827]	9.57 ± 0.23
TGAACTTTAAACCCTGAACACACACTAATACACCCA [CACACA_site7970]	9.44 ± 0.24
AATATGTCATATATGTGTACATATGCACAGATATTA [XGTACX_site951]	8.86 ± 0.38
ATAAAAAGAAATCCAATACACACCTTCAAAATGGGT [CACACA_site1622]	9.04 ± 0.37
ATATATATAATAAATACACACATTTATATAGATAAA [CACACA_site3254]	8.9 ± 0.41
ATTCAATATTTATACACACACACTTTTAATAATTAA [CACACA_site7725]	9.35 ± 0.16
AAACATTTATCAATGAATCTTTTAATAAGTGTAAAG [XGTACX_negctrl_site80]	8.52 ± 0.46
TCATTCAGTTTTATCACACACAATCAAACATATATA [CACACA_site2742]	8.99 ± 0.36
AATATAAGGATATATACACACATAAATACATACATA [CACACA_site7859]	9.25 ± 0.45
TATTTTTTTAGATATACATGCAAAAACAGAAGAAAT [TGCATGCA_site283]	8.55 ± 0.36

Sequence	gcPBM binding intensity (ln)
TCAACATTCATTGGAAGTACTCACTCCCATATAATA [XGTACX_site5211]	8.54 ± 0.44
TTTTTATTTTTTATGTAATTTAAATAATTATTCAAA [CACACA_negctrl_site1549]	8.17 ± 0.57
AGTAAACGATGATGTTGTACAAAAAGGATAATTTAA [XGTACX_site6698]	9.13 ± 0.5
TACAAAAAAGAAGATATTCAAACAAAAACAAAAAAA [CACACA_negctrl_site1126]	8.7 ± 0.45
CAATACTATTATTATAGTACGTATAAAATTATATAT [XGTACX_site4950]	8.71 ± 0.49
TATCATAATAGACACAGTACATATATGTCTTAAATT [XGTACX_site8775]	8.84 ± 0.38
TATATATATATGCTACGTACATATATATTATATATA [XGTACX_site7894]	9.05 ± 0.15
GTATTCTTCTCTCCGTGTACATATATATGTATATAT [XGTACX_site803]	9.21 ± 0.43
ACACATACATACATATGTACATATATACATATATAC [XGTACX_site5559]	9.22 ± 0.3
TATATATAAACAAAATGTACATATTTGAGATACCCT [XGTACX_site2195]	8.9 ± 0.32
TGTTTCTAAAAAAAAGGTACACATATATATAATATA [XGTACX_site3217]	8.49 ± 0.41
GTAACCCACCAAAATGCACACATTAAAAAAAAAAAA [CACACA_site1046]	9.02 ± 0.47
AAACCGTGGGAGCACACACACACACGCGCACATATA [CACACA_site6288]	10 ± 0.3
ATAGTTTATACAAATAGTACGCACAAAAAAAAATAA [XGTACX_site6727]	8.8 ± 0.52
TTTATCAAAATAAATGCACACAAATTGCACATATCT [CACACA_site8281]	9.09 ± 0.38
AATACCGGAAAGCAAACACACATTTGAAAACCATAA [CACACA_site7761]	9.32 ± 0.53
TATATATTATATATATGTACATATTTATTTTATTTT [XGTACX_site6989]	8.75 ± 0.37
AAAAAATTTCAAATGACATAATGTAATTTCCCTTTT [GTGCAC_negctrl_site673]	8.45 ± 0.45
AACGGGGGTAGTTTTATGCACACGTTTATTAATGCT [CACACA_site3173]	9.25 ± 0.34
GATATGAATATAGGTTGTACTATATATAAAGTATGT [XGTACX_site1877]	8.88 ± 0.43
AAAGTACAAGTATAATCACACGTGTCTATTATATAC [CACACA_site4507]	9.37 ± 0.45
TATATGTTAATTTTTTTTTTTTTTTTTTTTTTTATA [CACACA_negctrl_site62]	8.28 ± 0.66

Sequence	gcPBM binding intensity (ln)
ACATGAATTTATATGTGTACTAACTATATTCTTAAA [XGTACX_site5966]	8.72 ± 0.38
ATGAATAAATAGGTCACACACAAATATTTATAAATA [CACACA_site7186]	9.29 ± 0.39
TATCTGTATTTATTCACACATATAAAATATAATTAA [CACACA_site5560]	8.31 ± 0.39
TATATACAATATAGGTGTACATTTTTTTATCTATTT [XGTACX_site8431]	8.79 ± 0.42
TCTGGCATATAATATTGTACACATATATATATATAT [XGTACX_site8182]	9.45 ± 0.21
ATATTTATGTAAAAAAGTACATACAATTATATATGT [XGTACX_site3750]	8.78 ± 0.46
GATTACAAAAAAAATACACACAAAAAAAAAAAGGAA [CACACA_site2096]	9.19 ± 0.59
ATAATGTTTTATAATACACACATTATATATATAAAT [CACACA_site6101]	8.87 ± 0.32
CTTTCAATTTTTTTCTGTACCAATAAAAAATATAAA [XGTACX_site2120]	8.11 ± 0.36
TTGAGCATAAAATTTGGAAACCTCAATCGGACAAAA [GTGCAC_negctrl_site84]	8.68 ± 0.45
AACTGAGAAACCGAAGTGCAATATGTATATATACAT	9.1 ± 0.41
ATATGAAAGGTGTACACACGCACACCCAAAAAAATA [CACACA_site2911]	9.35 ± 0.36
TAATTTAAAAATATAAATGTTTCACTTATATATTTT [TGCATGCA_negctrl_site399]	8.39 ± 0.49
ATATATAATATATATGCATGTGACATTAATAATATA [TGCATGCA_site880]	8.81 ± 0.4
CCACACTTAAAATACACACACACCAAAAAAAAAAAA [CACACA_site2709]	9.76 ± 0.47
TTTTTTACGCATAACTTAATATGAGAATCCCTTTCT [GTGCAC_negctrl_site522]	8.53 ± 0.58
ATTTATTGACTATTTACACACATATTTATTAGAATA [CACACA_site6863]	8.97 ± 0.32
GGGAGGATAGTTCACAGTACCCAGTAACTCTACGGA [XGTACX_site2558]	8.86 ± 0.41
ATGATACATAAAGAATATAAAACATGAAATATAATA [CACACA_negctrl_site1461]	8.88 ± 0.48
GCCACACTTTTCTGCACACATAAAAAATATATAAAT [CACACA_site578]	9.09 ± 0.45
TATATCGTTATATAAACACACAATATGTTTTTTATA [CACACA_site7730]	8.69 ± 0.4
CTTTTATGAAACAGTGCACACATAAAAATATATACA [CACACA_site8981]	9.06 ± 0.33

Sequence	gcPBM binding intensity (ln)
CATAAGAGGAACTTTTGTACTTATATGTATATAGTA [XGTACX_site5836]	8.5 ± 0.33
AAAAAAAAAAAAAAAACACACATTTGAAAGAAAGAA [CACACA_site3339]	8.69 ± 0.59
TACACCCATGGACACACACACACGCATAAAAAAAAA [CACACA_site4933]	9.85 ± 0.58
ATTTTTATTTTCTTTACACACCACATAATTTTTTTT [CACACA_site6092]	9.03 ± 0.58
ATGAACATTTATAAATGTACTCACATATATATATTT [XGTACX_site6692]	8.74 ± 0.39
TTTATATTTATCCAAAGTACTTTTTAAAAACATACC [XGTACX_site4518]	8.46 ± 0.42
TTTTTGTTTTTTTTTTGTACATATATATAAAAAATA [XGTACX_site1214]	8.44 ± 0.5
TTTTTTTTAATATTTTACATTGTCTGTTAACAAATA [CACACA_negctrl_site599]	8.44 ± 0.45
AACATTTTTAGATTATATTATTAAATAAGTAACTGC [XGTACX_negctrl_site326]	8.46 ± 0.38
AGATATATATTTTATTGTACACATTAAAGTATAAAA [XGTACX_site7194]	8.52 ± 0.4
AACACTTTAATTTATGCACACATATGGAACAACAGC [CACACA_site8241]	9.2 ± 0.42
AAGTTTTTTATTTTTTGTACATAAAAAATAATAATT [XGTACX_site1755]	8.34 ± 0.37
TATGTATTTATATATACACACTTCTGTGATACGAAA [CACACA_site5128]	8.76 ± 0.38
TTTTTCATTTAACAGAAGGGAGATAAAAAAAAAAAA [TGCATGCA_negctrl_site261]	8.12 ± 0.47
ATATTATTTTAAAGTACACACATATATTGATATATA [CACACA_site7153]	8.85 ± 0.37
GTATGTATGTATGTATGTACGTATGTATGTATATAT [XGTACX_site3369]	9.2 ± 0.36
AATAATTATAAAAAATGTACAAAAAAAAAAAAAAAA [XGTACX_site3681]	8.68 ± 0.45
AGAATACATCTATGAACACACAGAGTTTTAAAAAAT [CACACA_site5514]	8.98 ± 0.47
ATTAAAAATAAGAAGAGTACATATAATATATATACA [XGTACX_site3092]	8.73 ± 0.46
ACCTTTTGGATTATATGTACATATATATATATATAT [XGTACX_site2687]	9.61 ± 0.26
TTAAAAAGAAAGTTCACACACATATATATGACGGAA [CACACA_site2602]	9.19 ± 0.35
AAAATAATATTTAATACACACATAATTATAATATAA [CACACA_site782]	8.75 ± 0.42
